T1: huTfR Apical Domain-Avi-His (human, biotin on the Avi tag (BirA) where captured on streptavidin)
T1 construct: also called huTfR apical Avi-His; hTfR Apical
T1 chain: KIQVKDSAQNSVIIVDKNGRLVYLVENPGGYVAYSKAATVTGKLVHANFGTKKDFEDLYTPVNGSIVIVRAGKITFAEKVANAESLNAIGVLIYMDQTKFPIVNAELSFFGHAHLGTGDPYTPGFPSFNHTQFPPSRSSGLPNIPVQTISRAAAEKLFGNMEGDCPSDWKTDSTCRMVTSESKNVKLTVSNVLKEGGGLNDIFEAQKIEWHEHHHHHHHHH

T2: Cyno TfR ECD Avi-His (cynomolgus macaque, UniProt Q5RDH6 89-760 (Pongo abelii entry), biotin on the Avi tag (BirA) where captured on streptavidin)
T2 construct: also called Cyno TfR Avi-His; cyno TfR Avi-His
T2 chain: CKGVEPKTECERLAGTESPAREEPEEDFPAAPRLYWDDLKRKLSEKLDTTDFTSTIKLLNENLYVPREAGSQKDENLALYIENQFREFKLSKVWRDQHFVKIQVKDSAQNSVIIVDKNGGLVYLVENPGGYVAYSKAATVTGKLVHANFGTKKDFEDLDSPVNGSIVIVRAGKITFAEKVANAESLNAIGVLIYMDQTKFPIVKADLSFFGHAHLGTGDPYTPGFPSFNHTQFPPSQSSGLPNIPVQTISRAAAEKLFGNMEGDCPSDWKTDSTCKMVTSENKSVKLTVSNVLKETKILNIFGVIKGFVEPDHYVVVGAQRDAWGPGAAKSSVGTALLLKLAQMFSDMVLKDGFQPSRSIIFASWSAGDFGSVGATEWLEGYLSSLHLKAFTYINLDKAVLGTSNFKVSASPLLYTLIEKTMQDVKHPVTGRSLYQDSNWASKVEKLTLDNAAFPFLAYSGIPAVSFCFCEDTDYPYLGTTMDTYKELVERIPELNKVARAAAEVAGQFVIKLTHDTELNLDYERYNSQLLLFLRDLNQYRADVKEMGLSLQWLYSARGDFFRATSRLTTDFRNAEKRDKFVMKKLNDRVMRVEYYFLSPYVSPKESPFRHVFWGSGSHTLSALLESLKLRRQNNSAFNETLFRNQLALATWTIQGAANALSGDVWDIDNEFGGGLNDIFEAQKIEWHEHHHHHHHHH


Columns and labels:
[1] = biological target: T3, Full length human TfR on CHO cells (human, UniProt P02786); assay: FACS MFI
T3 construct: also called CHO + huTfR; CHO + hTfR

[2] = biological target: T4, Mouse TfR (muTfR) ECD Avi-His (mouse, UniProt Q62351, biotin on the Avi tag (BirA) where captured on streptavidin); assay: ELISA OD450
T4 construct: also called MuTfR Avi-His

[3] = biological target: T1, huTfR Apical Domain-Avi-His; assay: ELISA OD450
Cyno TfR ECD Avi-His = biological target: T2, Cyno TfR ECD Avi-His; assay: ELISA OD450

T3 sequence (P02786 whole entry): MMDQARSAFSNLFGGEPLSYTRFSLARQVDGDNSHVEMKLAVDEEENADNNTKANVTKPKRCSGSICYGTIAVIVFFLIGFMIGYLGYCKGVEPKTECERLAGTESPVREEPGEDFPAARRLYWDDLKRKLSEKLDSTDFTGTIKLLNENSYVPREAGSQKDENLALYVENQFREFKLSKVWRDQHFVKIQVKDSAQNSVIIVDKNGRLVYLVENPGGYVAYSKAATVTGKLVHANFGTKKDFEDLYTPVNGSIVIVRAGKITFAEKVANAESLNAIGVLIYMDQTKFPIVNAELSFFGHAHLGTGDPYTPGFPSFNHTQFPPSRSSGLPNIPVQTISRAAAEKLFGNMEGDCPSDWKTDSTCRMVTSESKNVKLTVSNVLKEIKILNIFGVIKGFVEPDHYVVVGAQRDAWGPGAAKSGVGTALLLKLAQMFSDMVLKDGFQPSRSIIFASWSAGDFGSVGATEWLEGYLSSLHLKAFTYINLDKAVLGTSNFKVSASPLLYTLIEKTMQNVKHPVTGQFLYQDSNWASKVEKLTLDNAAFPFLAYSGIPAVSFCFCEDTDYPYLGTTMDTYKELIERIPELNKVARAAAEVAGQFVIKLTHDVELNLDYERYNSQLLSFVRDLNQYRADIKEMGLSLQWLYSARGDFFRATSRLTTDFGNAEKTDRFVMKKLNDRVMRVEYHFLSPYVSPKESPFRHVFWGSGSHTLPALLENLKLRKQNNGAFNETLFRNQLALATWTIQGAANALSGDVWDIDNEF

| fold over CHO parental [1] [fold] | fold over isotype control [2] [fold] | fold over isotype control [3] [fold] | fold over isotype control (Cyno TfR ECD Avi-His) [fold] | Binder |
| --- | --- | --- | --- | --- |
| 314 | 1 | 45 | 1 | TfR7 2+1 anti-TfR bispecific antibody (bispecific antibody, human IgG1, kappa, 2+1) heavy 1: EVRLLESGGGLVQPGGSLRLSCAASGFTFSNYAMGWVRQAPGKGLEWVSAISGSGGSTYYADSVKGRFTTSRDDSKNALYLQMNSLRAEDTAVYYCARGGPGWYAADVWGQGTTVTVSSASTKGPSVFPLAPSSKSTSGGTAALGCLVKDYFPEPVTVSWNSGALTSGVHTFPAVLQSSGLYSLSSVVTVPSSSLGTQTYICNVNHKPSNTKVDKKV[here human IgG1 Fc with changes without letters]GGGGSGGGGSGGGGSDVQLQESGPGLVKPSQSLSLTCTVTGYSITSDYAWNWLRQFPGNKLEWMGYISYSGYSRHNPSLKSRISITRDTSKNQFFLQLNSVTSEDTATYYCARGDWDFDYWGQGTTLTVSSGGSEGKSSGSGSESKSTGGSDIVMTQSQKFMSTSVGDRVSVTCKASQNVLTNVAWYQQKPGHSPKALIYSSSSRNSGVPDRFTGSGSGTDFTLTISNVQSEDLAEYFCQQYNTYPYTFGGGTKLEIK heavy 2: EVRLLESGGGLVQPGGSLRLSCAASGFTFSNYAMGWVRQAPGKGLEWVSAISGSGGSTYYADSVKGRFTTSRDDSKNALYLQMNSLRAEDTAVYYCARGGPGWYAADVWGQGTTVTVSS[here human IgG1 constant region with changes without letters] light: DIQMTQSPSSLSASVGDRVTITCRASQSISSYLNWYQQKPGKAPKLLIYAASSLQSGVPSRFSGSGSGTDFTLTISSLQPEDFATYYCQQADLPAFAFGGGTKVEIKRTVAAPSVFIFPPSDEQLKSGTASVVCLLNNFYPREAKVQWKVDNALQSGNSQESVTEQDSKDSTYSLSSTLTLSKADYEKHKVYACEVTHQGLSSPVTKSFNRGEC |
| 62 | 1 | 26 | 10 | TfR9 2+1 anti-TfR bispecific antibody (bispecific antibody, human IgG1, kappa, 2+1; also called parental TfR9 scFv) heavy 1: EVRLLESGGGLVQPGGSLRLSCAASGFTFSNYAMGWVRQAPGKGLEWVSAISGSGGSTYYADSVKGRFTTSRDDSKNALYLQMNSLRAEDTAVYYCARGGPGWYAADVWGQGTTVTVSSASTKGPSVFPLAPSSKSTSGGTAALGCLVKDYFPEPVTVSWNSGALTSGVHTFPAVLQSSGLYSLSSVVTVPSSSLGTQTYICNVNHKPSNTKVDKKV[here human IgG1 Fc with changes without letters]GGGGSGGGGSGGGGSEVQLQQSGPELVKPGASVKISCKTSGYTFTEYAMHWVKQSHGKSLEWIGGINPNDGGTSYNQKFKGKATLTVDKSSSTAYMELRSLTSEDSAVYYCSSQRWLLRGGDYWGQGTTLTVSSGGSEGKSSGSGSESKSTGGSDVVMTQTPLTLSVTIGQPASISCKSSQSLLDSDGKTYLNWLLQRPGQSPKRLIYLVSKLDSGVPDRFTGSGSGTDFTLKISRVEAEDLGVYYCWQGTHFPQTFGGGTKLEIK heavy 2: EVRLLESGGGLVQPGGSLRLSCAASGFTFSNYAMGWVRQAPGKGLEWVSAISGSGGSTYYADSVKGRFTTSRDDSKNALYLQMNSLRAEDTAVYYCARGGPGWYAADVWGQGTTVTVSS[here human IgG1 constant region with changes without letters] light: DIQMTQSPSSLSASVGDRVTITCRASQSISSYLNWYQQKPGKAPKLLIYAASSLQSGVPSRFSGSGSGTDFTLTISSLQPEDFATYYCQQADLPAFAFGGGTKVEIKRTVAAPSVFIFPPSDEQLKSGTASVVCLLNNFYPREAKVQWKVDNALQSGNSQESVTEQDSKDSTYSLSSTLTLSKADYEKHKVYACEVTHQGLSSPVTKSFNRGEC |
| 107 | 1 | 44 | 4 | TfR11 2+1 anti-TfR bispecific antibody (bispecific antibody, human IgG1, kappa, 2+1) heavy 1: EVRLLESGGGLVQPGGSLRLSCAASGFTFSNYAMGWVRQAPGKGLEWVSAISGSGGSTYYADSVKGRFTTSRDDSKNALYLQMNSLRAEDTAVYYCARGGPGWYAADVWGQGTTVTVSSASTKGPSVFPLAPSSKSTSGGTAALGCLVKDYFPEPVTVSWNSGALTSGVHTFPAVLQSSGLYSLSSVVTVPSSSLGTQTYICNVNHKPSNTKVDKKV[here human IgG1 Fc with changes without letters]GGGGSGGGGSGGGGSEVQLQQSGTVLARPGASVKMSCKASGYSFTSYWMHWVKQRPGQGLEWIGAIFPGNIDTIYNQKFKDKAKLTAVTSASTAYMELSSLTNEDSAVYFCTRLYYDYVWGAGTTVTVSSGGSEGKSSGSGSESKSTGGSDIKMTQSPSSMYASLGERVTLTCKASQDINSYLSWFQQKPGKSPKTLIYHVNRLVDGVPSRFSGSGSGQDYSLTISSLEYEDMGIYYCLQYDEFPYTFGGGTKLEIK heavy 2: EVRLLESGGGLVQPGGSLRLSCAASGFTFSNYAMGWVRQAPGKGLEWVSAISGSGGSTYYADSVKGRFTTSRDDSKNALYLQMNSLRAEDTAVYYCARGGPGWYAADVWGQGTTVTVSS[here human IgG1 constant region with changes without letters] light: DIQMTQSPSSLSASVGDRVTITCRASQSISSYLNWYQQKPGKAPKLLIYAASSLQSGVPSRFSGSGSGTDFTLTISSLQPEDFATYYCQQADLPAFAFGGGTKVEIKRTVAAPSVFIFPPSDEQLKSGTASVVCLLNNFYPREAKVQWKVDNALQSGNSQESVTEQDSKDSTYSLSSTLTLSKADYEKHKVYACEVTHQGLSSPVTKSFNRGEC |
| 875 | 1 | 40 | 28 | TfR15 2+1 anti-TfR bispecific antibody (bispecific antibody, human IgG1, kappa, 2+1; also called TfR15 parental; parental TfR15) heavy 1: EVRLLESGGGLVQPGGSLRLSCAASGFTFSNYAMGWVRQAPGKGLEWVSAISGSGGSTYYADSVKGRFTTSRDDSKNALYLQMNSLRAEDTAVYYCARGGPGWYAADVWGQGTTVTVSSASTKGPSVFPLAPSSKSTSGGTAALGCLVKDYFPEPVTVSWNSGALTSGVHTFPAVLQSSGLYSLSSVVTVPSSSLGTQTYICNVNHKPSNTKVDKKV[here human IgG1 Fc with changes without letters]GGGGSGGGGSGGGGSQVQLQQPGSELVRPGASVKLSCKASGYTFTSYWMHWVKQRPGQGLEWIGNIYPGSGSSNYDEKFKSKATLTVDTSSSTAYMQLNSLTSEDSAVYYCTRSSYYGNFDTMDNWGQGTSVTVSSGGSEGKSSGSGSESKSTGGSQIVLTQSPAIMSASPGEKVTMTCSASSSIRYMNWYQQKPVTSPKRWIYDTSTLASGVPARFSGSGSGTSYSLTISSMEAEDAATYYCHQRSSYPWTFGGGTKLEIK heavy 2: EVRLLESGGGLVQPGGSLRLSCAASGFTFSNYAMGWVRQAPGKGLEWVSAISGSGGSTYYADSVKGRFTTSRDDSKNALYLQMNSLRAEDTAVYYCARGGPGWYAADVWGQGTTVTVSS[here human IgG1 constant region with changes without letters] light: DIQMTQSPSSLSASVGDRVTITCRASQSISSYLNWYQQKPGKAPKLLIYAASSLQSGVPSRFSGSGSGTDFTLTISSLQPEDFATYYCQQADLPAFAFGGGTKVEIKRTVAAPSVFIFPPSDEQLKSGTASVVCLLNNFYPREAKVQWKVDNALQSGNSQESVTEQDSKDSTYSLSSTLTLSKADYEKHKVYACEVTHQGLSSPVTKSFNRGEC |
| 152 | 1 | 40 | 36 | TfR12 2+1 anti-TfR bispecific antibody (bispecific antibody, human IgG1, kappa, 2+1; also called parental TfR12 scFv) heavy 1: EVRLLESGGGLVQPGGSLRLSCAASGFTFSNYAMGWVRQAPGKGLEWVSAISGSGGSTYYADSVKGRFTTSRDDSKNALYLQMNSLRAEDTAVYYCARGGPGWYAADVWGQGTTVTVSSASTKGPSVFPLAPSSKSTSGGTAALGCLVKDYFPEPVTVSWNSGALTSGVHTFPAVLQSSGLYSLSSVVTVPSSSLGTQTYICNVNHKPSNTKVDKKV[here human IgG1 Fc with changes without letters]GGGGSGGGGSGGGGSQVQLQQPGSELVRPGASVKLSCKASGYTFTSYWMHWVKQRPGQGLEWIGNIYPGSGSSNYDEKFKNKATLTVDTSSNTAYMQLSSLTSEDSAVYYCTRSSYYGNFDTMDNWGQGTSVTVSSGGSEGKSSGSGSESKSTGGSQIVLTQSPAIMSASPGEKVTMTCSASSSIRYMNWYQQKPVTSPKRWIYDTSTLASGVPARFSGSGSGTSYSLTISSMEAEDAATYYCHQRSSYPWTFGGGTKLEIK heavy 2: EVRLLESGGGLVQPGGSLRLSCAASGFTFSNYAMGWVRQAPGKGLEWVSAISGSGGSTYYADSVKGRFTTSRDDSKNALYLQMNSLRAEDTAVYYCARGGPGWYAADVWGQGTTVTVSS[here human IgG1 constant region with changes without letters] light: DIQMTQSPSSLSASVGDRVTITCRASQSISSYLNWYQQKPGKAPKLLIYAASSLQSGVPSRFSGSGSGTDFTLTISSLQPEDFATYYCQQADLPAFAFGGGTKVEIKRTVAAPSVFIFPPSDEQLKSGTASVVCLLNNFYPREAKVQWKVDNALQSGNSQESVTEQDSKDSTYSLSSTLTLSKADYEKHKVYACEVTHQGLSSPVTKSFNRGEC |

From patent US20250270339A1 (Alector, published 2025)
